Measured values reported in PubChem BioAssay AID938 (National Center for Advancing Translational Sciences (NCATS), 2007).
Hit rate of the full screen: of about 73,000 compounds, about 1,800 (2.5%) were called active. This list was built around the results that the source calls inconclusive (neither active nor inactive); the mix of calls is not that of the screen. The call rests on the fitted dose curve; in most records, active means well fitted activation curve with a large enough effect; inconclusive means small, poorly fitted or top-dose-only effect; inactive means no such curve, though single readings can be large or run the other way. No potency is given beside an inconclusive call; the fits are too rough.

experiment: qHTS Assay for Agonists of the Thyroid Stimulating Hormone Receptor: Activators of Intracellular cAMP Concentrations in Parental HEK 293; conditions: parental HEK293 CNG cAMP sensor, membrane potential fluorescence; activation: at 57.1 µM (top of the series) unless noted; further: nearly all actives have a fitted effect of over 55% in size; on activation: % of control where 0% means no effect
Method in brief: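 Counterscreen for endogenous-receptor signalling: CNG-channel HEK 293 cells report cAMP rise by membrane depolarization. After 60 min dye equilibration with 100 uM RO 20-1724, compounds incubated 30 min before bottom-read fluorescence at 590 nm.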
Potency means the concentration at half of the fitted maximal effect; tags describe the fitted curve by direction and shape.

Row | Compound | Potency | activation
1 | COc1cc(OC)c(C2CC(=O)N3CN(c4ccccc4)CSC3=C2C#N)cc1OC (configuration not stated) | inactive | 
2 | O=C(Nc1ccc2c(c1)OCO2)OCc1ccccc1 | inconclusive [activator, single point] | 
3 | C[C@@]12CC[C@@H]3c4ccc(O)cc4CC[C@H]3[C@H]1C[C@@H](O)[C@H]2O | inactive | 
4 | Cc1ccccc1OCCCN1C(=O)C(=O)c2cccc(C)c21 | inconclusive [activator, partial curve] | 
5 | NS(=O)(=O)c1ccc(CCNC(=O)CCC2COc3ccccc3O2)cc1 (configuration not stated) | inconclusive [activator, full curve] | 
6 | O=C(Nc1ccc2c(c1)OCCO2)c1ccc2nccnc2c1 | inactive | 
7 | Brc1ccccc1-c1nc(-c2ccccc2)no1 |  | inactive: 28.3% [at 11.4 µM]
8 | CCc1ccc2nc(N3CCN(C)CC3)c(C#N)cc2c1 | inconclusive [activator, partial curve] | 
9 | CC(C)=CC(=O)N1CCCc2ccccc21 | inactive | 
10 | COc1cccc(Cn2c(=O)c(-c3ccccc3)nc3cnc(N(C)C)nc32)c1 | inactive | 
11 | O=C(c1csnn1)N1CCC2(CC1)CCN(c1ccccc1)CC2 | inactive | 
12 | CS(=O)(=O)c1sc2nc(-c3cccs3)cc(-c3ccccc3)c2c1N | inconclusive [activator, partial curve] | 
13 | COc1ccc(OCC2CN3C(CCC(C)C3c3ccc(Br)cc3)C(=O)O2)cc1 (configuration not stated) | inconclusive [activator, partial curve] | 
14 | CCCCCN=Cc1c(C)[nH]n(-c2nc3ccccc3s2)c1=O |  | inactive: 7.43% [at 11.4 µM]
15 | Clc1ccc2nc(NC3=NCN(CCN4CCOCC4)CN3)nc(-c3ccccc3)c2c1 | inconclusive [activator, partial curve] | 
16 | COc1ccccc1NC(=O)c1ccccc1NS(=O)(=O)N1CCCC1 | inconclusive [activator, single point] | 
17 | CCc1ccc2[nH]c(=O)c(C(c3nnnn3CCOC)N3CCN(c4ccc(F)cc4)CC3)cc2c1 (configuration not stated) | inconclusive [activator, single point] | 
18 | CNCC[C@H](Oc1ccccc1OC)c1ccccc1 | inactive | 
19 | COc1ccc(CNC(=O)c2noc3c2CCCC3)cc1 | inconclusive [activator, single point] | 
20 | O=C(c1cccc(F)c1)N1CCC[C@@]2(CCN(C(c3ccccc3)c3ccccc3)C2)C1 | inconclusive [activator, single point] | 
21 | C=CCOC(=O)C1=C(C)NC(SCC(=O)NC(=O)OCC)=C(C#N)C1c1cccnc1 (configuration not stated) | inconclusive [activator, single point] | 
22 | Clc1ccc(-c2nn3c(Cn4cnc5ccccc54)nnc3s2)c(Cl)c1 | inconclusive [activator, single point] | 
23 | COC(=O)c1cc2c(cc1NC(=O)CSCCc1ccccn1)OCO2 | inconclusive [activator, partial curve] | 
24 | CSc1nc(N(CCO)CCO)c2sc3nc(-c4ccco4)c4c(c3c2n1)CCC4 | active: 25.1 µM | 

Row | Compound | Potency | activation
25 | COc1cccc(/C=N/n2c(C)c3c(C)nnc(C)c3c2C)c1O | inactive | 
26 | COCC(=O)N1CCC2(CC1)CN(Cc1nccs1)C2 | inconclusive [activator, partial curve] | 
27 | COC(=O)c1cn(NC(=O)c2ccncc2)c(=O)c2ccccc12 | inactive | 
28 | COc1ccccc1CC(NC(C)=O)C(=O)NC1CCN(c2nnnn2-c2ccccc2)CC1 (configuration not stated) | inconclusive [activator, single point] | 
29 | CCOCCCNC(=O)C1CCN(S(=O)(=O)CC)CC1 | inconclusive [activator, single point] | 
30 | Cc1ccc(CN(c2ccc(C(=O)N3CCOCC3)cc2)S(C)(=O)=O)cc1 | inconclusive [activator, single point] | 
31 | O=C(Nc1cccc(F)c1)N1CC[C@@]2(CCCN(S(=O)(=O)c3ccccc3)C2)C1 | inconclusive [activator, partial curve] | 
32 | CCc1ccccc1NC1=NCC(=O)N1Cc1ccc2c(c1)OCO2 | inconclusive [activator, single point] | 
33 | COC(=O)N1CCC[C@@]2(CCN(C(=O)Nc3cccc(F)c3)C2)C1 | active: 7.94 µM | 
34 | Cc1ccc(-n2nc(C(=O)NCc3ccco3)c3c4ccccc4n(C)c3c2=O)cc1 | active: 3.98 µM | 
35 | O=C(CCCSc1nnc(-c2cccs2)n1CC1CCCO1)c1ccccc1 (configuration not stated) | inconclusive [activator, partial curve] | 
36 | Cn1cccc1P(=O)(c1cccn1C)c1cccn1C | inconclusive [activator, single point] | 
37 | CCCn1c(SCC(=O)Nc2ccccc2N2CCCCC2)nc2c1c(=O)n(C)c(=O)n2C | active: 1 µM | 
38 | CC(=O)OC1c2c(ccc3ccc(=O)oc23)OC(C)(C)C1OC(=O)CC(C)C (configuration not stated) | inconclusive [activator, partial curve] | 
39 | CCN(CC)C(=O)N1c2ccccc2CC(N(CC)CC)c2ccccc21 (configuration not stated) | inconclusive [activator, single point] | 
40 | O=C(O)CSc1c2c(nc3cc(C(=O)N4CCOCC4)ccc13)CCCC2 | inconclusive [activator, single point] | 
41 | CCS(=O)(=O)N1CCN(C(=O)c2cccs2)CC1 | inactive | 
42 | CC(C)C(OC(=O)CN1C(=O)COc2ccccc21)C(=O)NC1CCCC1 (configuration not stated) | inconclusive [activator, full curve] | 
43 | Cc1noc(/C=C/c2ccco2)c1S(=O)(=O)N1CCC(C(=O)NCc2ccco2)CC1 | inactive | 
44 | O=C(c1cc2nc(-c3ccco3)cc(C(F)(F)F)n2n1)N1CCCc2ccccc21 | inactive | 
45 | CCN(Cc1nc2ccccc2c(=O)[nH]1)Cc1cc(=O)oc2cc(C)c(C)cc12 | inconclusive [activator, single point] | 
46 | COc1cccc(Nc2ncc3nc(C)c(=O)n(-c4ccccc4)c3n2)c1 | inconclusive [activator, partial curve] | 
47 | COc1ccc(-c2cc(-c3ccccc3)nc(N3CCCC3)n2)cc1OC |  | inactive: 10.9% [at 11.4 µM]
48 | O=C(c1cccn2c(=O)c3ccccc3nc12)N1CCN(c2ccccn2)CC1 | inactive | 

Row | Compound | Potency | activation
49 | Cc1ccc(-c2nn3c(C)nnc3s2)cc1NC(=O)c1ccc(-c2cccc(Cl)c2)o1 | inconclusive [activator, partial curve] | 
50 | CN(Cc1ccccc1)C(=O)CCC(=O)N(C)Cc1ccccc1 |  | inactive: 3.51% [at 11.4 µM]
51 | CC(C)(C)NC(=O)C(c1ccncc1)N(Cc1cccs1)C(=O)Cn1nnc(-c2cccs2)n1 (configuration not stated) | active: 20 µM | 
52 | Cc1cc(C(=O)Nc2cc(C)n(Cc3ccc(Cl)cc3)n2)no1 | inactive | 
53 | c1ccc(Nc2nc(-c3cccs3)cs2)nc1 | inactive | 
54 | CC(=O)Nc1ccc(C2NC(C(=O)O)CCC2C)cc1 (configuration not stated) |  | inactive: 15.2% [at 11.4 µM]
55 | Cc1ccc(C(=O)N2CCN(c3ccccc3)CC2)cc1C | active: 25.1 µM | 
56 | NC[C@H]1O[C@H](n2cnc3c(N)ncnc32)C[C@@H]1O |  | inactive: 12.1% [at 11.4 µM]
57 | Cc1ccc(-n2ncc3c(=O)n(Cc4ccccn4)cnc32)cc1C | inactive | 
58 | COc1ccccc1N(CC(=O)Nc1ccc2c(c1)OCO2)S(=O)(=O)c1ccccc1 | inconclusive [activator, partial curve] | 
59 | CCCC[C@H]1C[C@@H]1[C@@H]1N(P(=O)(c2ccccc2)c2ccccc2)C[C@@](O)(c2ccccc2)CC12CC2 | inactive | 
60 | C=CCn1c(SCc2c(F)cccc2Cl)nnc1-c1ccco1 | inconclusive [activator, partial curve] | 
61 | O=C(Nc1ccc2c(c1)OCO2)C1CCCN1C(=O)Nc1cccc(F)c1 (configuration not stated) | inconclusive [activator, full curve] | 
62 | CC(C)(C)n1nnnc1C(c1cccs1)N1CCCc2ccccc21 (configuration not stated) | active: 15.8 µM | 
63 | O=C(CSc1nnc(-c2ccncc2)n1Cc1ccco1)c1ccc(Cl)cc1 | inconclusive [activator, single point] | 
64 | CCCn1c(N2CCN(S(=O)(=O)Cc3ccccc3)CC2)nc2ccccc21 | active: 25.1 µM | 
65 | CCN(c1ccccc1)S(=O)(=O)c1ccc(F)cc1C | inconclusive [activator, partial curve] | 
66 | Cc1cccc2c1Oc1ccccc1[C@@H]2NC(=O)c1ccc([N+](=O)[O-])cc1 | inconclusive [activator, single point] | 
67 | NC(=O)c1c(NC(=O)CSc2nnc(-c3ccco3)n2-c2ccccc2)sc2c1CCC2 | inconclusive [activator, single point] | 
68 | CCOc1ccccc1N1CCN(c2nc(N)c(C#N)c(CC#N)c2C#N)CC1 | inconclusive [activator, single point] | 
69 | CCOC(=O)N1CCN(Cc2nc3c(c(=O)n(C)c(=O)n3C)n2CCCc2ccccc2)CC1 | inconclusive [activator, full curve] | 
70 | c1ccc2c(c1)OCC(c1nnc3sc(-c4ccc5c(c4)OCO5)nn13)O2 (configuration not stated) | inconclusive [activator, single point] | 
71 | COc1ccc(CNC(=O)C2CCCN(c3nc4ccccc4o3)C2)c(OC)c1 (configuration not stated) | inactive | 
72 | COc1ccc(C(=O)Nc2cccc(C)c2)cc1 |  | inactive: 10.5% [at 11.4 µM]
